# Test results from the supplement of paper PMC10369915.
# Some of the results follow. Cut-off read from the data, not from the text of the source: active = 3.2 or more and inactive = the rest. The signal is at background level for most entries.
# Molecular target: SHP2 C-SH2 domain E139D
# Test: enrichment score (SH2-bound / input frequency) (ratio); bacterial display of known human phosphotyrosine sites (pTyr-Var adds point mutants) read by sequencing; higher = stronger binding; tyrosines were phosphorylated by kinases first
# Details: peptide library: pTyr-Var
# 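Note: displayed peptides selected on beads carrying the immobilized SH2 domain, with library peptides lacking any tyrosine serving as negative controls.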
row,Binder,enrichment score
1,TLNHQYDFTFH [CSNK1A1_Y292_D297H_YF],inactive: 0.97
2,TLNHQYDFTFD [CSNK1A1_Y292_YF],inactive: 0.977
3,NHQYDYTFDWT [CSNK1A1_Y294],inactive: 1.09
4,NHQYDYTFHWT [CSNK1A1_Y294_D297H],inactive: 1.71
5,KKHIPYREHKS [CSNK1G1_Y205],active: 4.93
6,KKHIPYKEHKS [CSNK1G1_Y205_R206K],active: 5.4
7,GLAKEYIDPET [CSNK1G2_Y195],inactive: 0.645
8,KKHIPYRQHKS [CSNK1G2_Y206_E208Q],active: 5.27
9,QTSTDYDIRFF [CSNK2A1_Y131_L128S_YF],inactive: 0.588
10,QTLTDYDTRFY [CSNK2A3_Y131_I133T],inactive: 0.701
11,QTLTDYDTRFF [CSNK2A3_Y131_I133T_YF],inactive: 0.571
12,HESEIYCKVCY [CSRP3_Y57],active: 3.7
13,HESEIYGKVCY [CSRP3_Y57_C58G],inactive: 0.927
14,HESEIYCKVCF [CSRP3_Y57_YF],inactive: 2.92
15,IPGGIYNADLN [CST4_Y35_D36N],inactive: 1.12
16,VRHRRYKHTHE [CTCF_Y343],inactive: 0.232
17,DLGIQYKALKP [CTNNA1_Y177],inactive: 0.771
18,NVPILYTASQA [CTNNA1_Y222],inactive: 0.843
19,WQQQSYLGSGI [CTNNB1_Y30_D32G],inactive: 0.933

# Molecular target: SHP2 C-SH2 domain wild-type
# Test: as above
# Details: peptide library: pTyr-Var
row,Binder,enrichment score
1,TLNHQYDFTFH [CSNK1A1_Y292_D297H_YF],inactive: 0.899
2,TLNHQYDFTFD [CSNK1A1_Y292_YF],inactive: 0.846
3,NHQYDYTFDWT [CSNK1A1_Y294],inactive: 0.902
4,NHQYDYTFHWT [CSNK1A1_Y294_D297H],inactive: 1.89
5,KKHIPYREHKS [CSNK1G1_Y205],active: 4.17
6,KKHIPYKEHKS [CSNK1G1_Y205_R206K],active: 4.42
7,GLAKEYIDPET [CSNK1G2_Y195],inactive: 0.833
8,KKHIPYRQHKS [CSNK1G2_Y206_E208Q],active: 4.11
9,QTSTDYDIRFF [CSNK2A1_Y131_L128S_YF],inactive: 0.601
10,QTLTDYDTRFY [CSNK2A3_Y131_I133T],inactive: 0.617
11,QTLTDYDTRFF [CSNK2A3_Y131_I133T_YF],inactive: 0.704
12,HESEIYCKVCY [CSRP3_Y57],active: 3.33
13,HESEIYGKVCY [CSRP3_Y57_C58G],inactive: 0.958
14,HESEIYCKVCF [CSRP3_Y57_YF],inactive: 2.82
15,IPGGIYNADLN [CST4_Y35_D36N],inactive: 0.851
16,VRHRRYKHTHE [CTCF_Y343],inactive: 0.173
17,DLGIQYKALKP [CTNNA1_Y177],inactive: 0.706
18,NVPILYTASQA [CTNNA1_Y222],inactive: 0.866
19,WQQQSYLGSGI [CTNNB1_Y30_D32G],inactive: 0.706

# Molecular target: SHP2 N-SH2 domain L43F
# Test: as above
# Details: peptide library: pTyr-Var
row,Binder,enrichment score
1,TLNHQYDFTFH [CSNK1A1_Y292_D297H_YF],inactive: 0.808
2,TLNHQYDFTFD [CSNK1A1_Y292_YF],inactive: 0.828
3,NHQYDYTFDWT [CSNK1A1_Y294],inactive: 0.885
4,NHQYDYTFHWT [CSNK1A1_Y294_D297H],inactive: 2.28
5,KKHIPYREHKS [CSNK1G1_Y205],active: 3.89
6,KKHIPYKEHKS [CSNK1G1_Y205_R206K],active: 4.8
7,GLAKEYIDPET [CSNK1G2_Y195],inactive: 0.584
8,KKHIPYRQHKS [CSNK1G2_Y206_E208Q],active: 4
9,QTSTDYDIRFF [CSNK2A1_Y131_L128S_YF],inactive: 0.622
10,QTLTDYDTRFY [CSNK2A3_Y131_I133T],inactive: 0.635
11,QTLTDYDTRFF [CSNK2A3_Y131_I133T_YF],inactive: 0.874
12,HESEIYCKVCY [CSRP3_Y57],active: 3.36
13,HESEIYGKVCY [CSRP3_Y57_C58G],inactive: 0.922
14,HESEIYCKVCF [CSRP3_Y57_YF],active: 3.22
15,IPGGIYNADLN [CST4_Y35_D36N],inactive: 1.13
16,VRHRRYKHTHE [CTCF_Y343],inactive: 0.253
17,DLGIQYKALKP [CTNNA1_Y177],inactive: 0.773
18,NVPILYTASQA [CTNNA1_Y222],inactive: 0.831
19,WQQQSYLGSGI [CTNNB1_Y30_D32G],inactive: 0.775

# Molecular target: SHP2 N-SH2 domain T42A
# Test: as above
# Details: peptide library: pTyr-Var
row,Binder,enrichment score
1,TLNHQYDFTFH [CSNK1A1_Y292_D297H_YF],inactive: 0.914
2,TLNHQYDFTFD [CSNK1A1_Y292_YF],inactive: 0.752
3,NHQYDYTFDWT [CSNK1A1_Y294],inactive: 1.11
4,NHQYDYTFHWT [CSNK1A1_Y294_D297H],inactive: 2.09
5,KKHIPYREHKS [CSNK1G1_Y205],active: 3.51
6,KKHIPYKEHKS [CSNK1G1_Y205_R206K],active: 4.09
7,GLAKEYIDPET [CSNK1G2_Y195],inactive: 0.56
8,KKHIPYRQHKS [CSNK1G2_Y206_E208Q],active: 3.72
9,QTSTDYDIRFF [CSNK2A1_Y131_L128S_YF],inactive: 0.446
10,QTLTDYDTRFY [CSNK2A3_Y131_I133T],inactive: 0.609
11,QTLTDYDTRFF [CSNK2A3_Y131_I133T_YF],inactive: 0.62
12,HESEIYCKVCY [CSRP3_Y57],active: 3.26
13,HESEIYGKVCY [CSRP3_Y57_C58G],inactive: 0.672
14,HESEIYCKVCF [CSRP3_Y57_YF],inactive: 2.93
15,IPGGIYNADLN [CST4_Y35_D36N],inactive: 1.18
16,VRHRRYKHTHE [CTCF_Y343],inactive: 0.238
17,DLGIQYKALKP [CTNNA1_Y177],inactive: 0.645
18,NVPILYTASQA [CTNNA1_Y222],inactive: 0.78
19,WQQQSYLGSGI [CTNNB1_Y30_D32G],inactive: 0.885

# Molecular target: SHP2 N-SH2 domain T52S
# Test: as above
# Details: peptide library: pTyr-Var
row,Binder,enrichment score
1,TLNHQYDFTFH [CSNK1A1_Y292_D297H_YF],inactive: 0.949
2,TLNHQYDFTFD [CSNK1A1_Y292_YF],inactive: 1.03
3,NHQYDYTFDWT [CSNK1A1_Y294],inactive: 0.839
4,NHQYDYTFHWT [CSNK1A1_Y294_D297H],inactive: 1.86
5,KKHIPYREHKS [CSNK1G1_Y205],active: 3.82
6,KKHIPYKEHKS [CSNK1G1_Y205_R206K],active: 4.66
7,GLAKEYIDPET [CSNK1G2_Y195],inactive: 0.73
8,KKHIPYRQHKS [CSNK1G2_Y206_E208Q],active: 4.37
9,QTSTDYDIRFF [CSNK2A1_Y131_L128S_YF],inactive: 0.485
10,QTLTDYDTRFY [CSNK2A3_Y131_I133T],inactive: 0.769
11,QTLTDYDTRFF [CSNK2A3_Y131_I133T_YF],inactive: 0.731
12,HESEIYCKVCY [CSRP3_Y57],active: 4.05
13,HESEIYGKVCY [CSRP3_Y57_C58G],inactive: 0.895
14,HESEIYCKVCF [CSRP3_Y57_YF],active: 3.37
15,IPGGIYNADLN [CST4_Y35_D36N],inactive: 1.1
16,VRHRRYKHTHE [CTCF_Y343],inactive: 0.246
17,DLGIQYKALKP [CTNNA1_Y177],inactive: 0.743
18,NVPILYTASQA [CTNNA1_Y222],inactive: 0.873
19,WQQQSYLGSGI [CTNNB1_Y30_D32G],inactive: 0.684

# Molecular target: SHP2 N-SH2 domain wild-type
# Test: as above
# Details: peptide library: pTyr-Var
row,Binder,enrichment score
1,TLNHQYDFTFH [CSNK1A1_Y292_D297H_YF],inactive: 1.18
2,TLNHQYDFTFD [CSNK1A1_Y292_YF],inactive: 0.913
3,NHQYDYTFDWT [CSNK1A1_Y294],inactive: 0.795
4,NHQYDYTFHWT [CSNK1A1_Y294_D297H],inactive: 1.73
5,KKHIPYREHKS [CSNK1G1_Y205],active: 3.81
6,KKHIPYKEHKS [CSNK1G1_Y205_R206K],active: 4.18
7,GLAKEYIDPET [CSNK1G2_Y195],inactive: 0.847
8,KKHIPYRQHKS [CSNK1G2_Y206_E208Q],active: 3.71
9,QTSTDYDIRFF [CSNK2A1_Y131_L128S_YF],inactive: 0.842
10,QTLTDYDTRFY [CSNK2A3_Y131_I133T],inactive: 0.644
11,QTLTDYDTRFF [CSNK2A3_Y131_I133T_YF],inactive: 0.641
12,HESEIYCKVCY [CSRP3_Y57],inactive: 2.89
13,HESEIYGKVCY [CSRP3_Y57_C58G],inactive: 0.733
14,HESEIYCKVCF [CSRP3_Y57_YF],inactive: 2.66
15,IPGGIYNADLN [CST4_Y35_D36N],inactive: 1.16
16,VRHRRYKHTHE [CTCF_Y343],inactive: 0.225
17,DLGIQYKALKP [CTNNA1_Y177],inactive: 0.83
18,NVPILYTASQA [CTNNA1_Y222],inactive: 0.851
19,WQQQSYLGSGI [CTNNB1_Y30_D32G],inactive: 0.923
